Test results from the supplement of paper PMC9446081.
The whole screen tested about 39,000 compounds, of which about 220 (0.56%) showed activity. The list shows a part of the results.

Test system: Escherichia coli K-12 BW25113
Assay: relative growth (OD600 normalised to plate interquartile mean) (fraction); higher = less growth inhibition, active = 0.2 or less
Settings: 50 µM; LB; incubation time: overnight (16-24 h)
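Note: static incubation at 37 °C against the wild-type strain, values averaged over two biological replicates.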

Row | SMILES | relative growth
1 | COc1ccc(S(=O)(=O)N(C)C[C@@H]2Oc3ncc(C#CCN(C)C)cc3C(=O)N([C@H](C)CO)C[C@@H]2C)cc1 | inactive: 0.984
2 | C=CCOC(=O)[C@@H]1[C@H]2C(=O)O[C@H](c3ccccc3)[C@H](c3ccccc3)N2[C@H](c2ccc(OCCOC(=O)[C@@H]3C[C@@H]4C(=O)N[C@@H](CC(C)C)C(=O)N4[C@@H]3c3ccc(O)cc3)cc2)[C@@]12C(=O)Nc1ccc(I)cc12 | inactive: 1.03
3 | COC1C(C(=O)O)OC(C)C(O)C1O.COC1OC(C(=O)O)C(O)C(O)C1O (stereo not given) ["ALGINIC ACID [Mol Wt ~200,000; monomers shown]"] | inactive: 0.862
4 | C[C@@H]1CCCCO[C@H](CN(C)C(=O)Nc2ccc3c(c2)OCO3)[C@@H](C)CN([C@@H](C)CO)C(=O)c2cc(NC(=O)C3CCCCC3)ccc2O1 | inactive: 1.03
5 | C[C@@H]1CCCCO[C@H](CN(C)C(=O)Nc2ccc(F)cc2)[C@@H](C)CN([C@H](C)CO)C(=O)c2cc(NC(=O)C3CCCCC3)ccc2O1 | inactive: 0.992
6 | C[C@H](CO)N1C[C@H](C)[C@@H](CN(C)CC2CC2)OCCCC[C@H](C)Oc2ccc(NC(=O)Nc3ccccc3)cc2C1=O | inactive: 1.02
7 | CC(C)CC#Cc1ccc2c(c1)O[C@H](CN(C)S(=O)(=O)c1ccc(F)cc1)[C@@H](C)CN([C@H](C)CO)S2(=O)=O | inactive: 1.05
8 | Cc1ccc(S(=O)(=O)N(C)C[C@@H]2Oc3ccc(NS(=O)(=O)c4ccccc4)cc3CC(=O)N([C@H](C)CO)C[C@H]2C)cc1 | inactive: 1
9 | C[C@H]1CN([C@@H](C)CO)S(=O)(=O)c2ccc(Br)cc2O[C@H]1CN(C)S(=O)(=O)c1ccccc1F | inactive: 1.02
10 | C[C@H]1CN([C@@H](C)CO)C(=O)c2cc(NC(=O)CCN3CCOCC3)ccc2O[C@H]1CN(C)S(=O)(=O)c1cccs1 | inactive: 1.03
11 | O=C(C[C@H]1CC[C@H]2NC[C@@H](O)COC[C@@H]2O1)NCCN1CCCCC1 | inactive: 0.988
12 | Clc1ccc(C(c2ccccc2Cl)C(Cl)Cl)cc1 (stereo not given) | inactive: 0.849
13 | Cc1ccc(S[C@]2(C(=O)NC3CC3)CC(=O)N(Cc3cc(C(F)(F)F)cc(C(F)(F)F)c3)[C@@H]2c2ccc(CO)cc2)cc1 | inactive: 0.975
14 | Cc1noc(C)c1S(=O)(=O)N(C)C[C@H]1Oc2ccc(NC(=O)CCC(F)(F)F)cc2CC(=O)N([C@@H](C)CO)C[C@H]1C | inactive: 0.994
15 | C[C@@H]1CN([C@@H](C)CO)C(=O)c2cc(Br)cnc2O[C@@H]1CN(C)Cc1ccc(C(=O)O)cc1 | inactive: 1.01
16 | Cc1ccc(N2C[C@@H](N)CC2=O)cc1C | inactive: 1
17 | C[C@@H]1CCCCO[C@H](CN(C)C(=O)NC2CCCCC2)[C@@H](C)CN([C@@H](C)CO)C(=O)c2cc(NS(=O)(=O)c3cccs3)ccc2O1 | inactive: 1.01
18 | NC[C@H]1CCS(=O)(=O)C1 | inactive: 1.01
19 | C[C@H]1CN([C@@H](C)CO)C(=O)c2cc(NS(=O)(=O)c3cccs3)ccc2O[C@H]1CN(C)S(=O)(=O)c1cccs1 | inactive: 1.02
20 | C[C@@H](NC(=O)C[C@H]1C=C[C@@H](NC(=O)CN2CCOCC2)[C@@H](CO)O1)c1ccccc1 | inactive: 0.987

Row | SMILES | relative growth
21 | CCc1nc2ccc(C(=O)N3CCN(C(=O)c4ccco4)CC3)cn2c1N(C)C(=O)c1cccc(OC)c1 | inactive: 0.965
22 | Cc1ccc(S(=O)(=O)Nc2cccc3c2O[C@H](CN(C)Cc2ccc(Oc4ccccc4)cc2)[C@@H](C)CN([C@@H](C)CO)C3=O)cc1 | inactive: 1.03
23 | OCCc1ccccc1 | inactive: 1.1
24 | C[C@H](CO)N1C[C@H](C)[C@H](CN(C)C(=O)Nc2ccccc2)OCCCC[C@H](C)Oc2ccc(NC(=O)c3ccccc3)cc2C1=O | inactive: 0.896
25 | COc1ccc(S(=O)(=O)Nc2ccc3c(c2)[C@@H]2C[C@@H](CC(=O)NCC4CC4)O[C@H](CO)[C@@H]2O3)cc1 | inactive: 1.01
26 | C[C@@H]1CN([C@H](C)CO)C(=O)c2cc(NC(=O)CCC(F)(F)F)ccc2O[C@@H](C)CCCCO[C@@H]1CN(C)C(=O)C1CCCCC1 | inactive: 1.01
27 | C[C@@H]1CN([C@@H](C)CO)C(=O)c2cc(N(C)C)ccc2O[C@@H](C)CCCCO[C@H]1CN(C)Cc1ccc(C(=O)Nc2ccccc2N)cc1 | inactive: 0.999
28 | O=C(O)c1ccccc1Nc1cccc(C(F)(F)F)c1 | inactive: 0.887
29 | C[C@@H]1CN([C@@H](C)CO)C(=O)c2cccc(NS(=O)(=O)c3ccc(F)cc3)c2O[C@@H]1CN(C)C(=O)Nc1cccc2ccccc12 | inactive: 0.998
30 | COc1ccc(S(=O)(=O)Nc2ccc3c(c2)C(=O)N([C@H](C)CO)C[C@H](C)[C@H](CN(C)S(=O)(=O)c2cccs2)O3)cc1 | inactive: 1.05
31 | COc1ccc(CN(C)C[C@@H]2Oc3ccc(NC(=O)Cn4cnnn4)cc3C(=O)N([C@@H](C)CO)C[C@@H]2C)cc1 | inactive: 0.987
32 | Nc1ncnc2c1ncn2[C@H]1CC[C@@H](CO)O1 | inactive: 0.476
33 | Cc1ccc(S(=O)(=O)Nc2ccc3c(c2)C(=O)N([C@H](C)CO)C[C@H](C)[C@H](CN(C)Cc2ccc(Cl)c(Cl)c2)O3)cc1 | inactive: 1
34 | CNC[C@@H]1OCCCC[C@@H](C)Oc2ccc(NC(=O)c3ccncc3)cc2C(=O)N([C@H](C)CO)C[C@@H]1C | inactive: 0.994
35 | COc1ccc(S(=O)(=O)Nc2ccc3c(c2)C(=O)N([C@@H](C)CO)C[C@@H](C)[C@H](CN(C)Cc2ccncc2)O3)cc1 | inactive: 0.982
36 | CCn1c(N)c(C(N)=O)sc1=S | inactive: 1.02
37 | C[C@H](CO)N1C[C@H](C)[C@@H](CN(C)S(C)(=O)=O)Oc2c(NC(=O)Nc3ccc(F)cc3)cccc2C1=O | inactive: 0.994
38 | C[C@@H]1CN([C@H](C)CO)C(=O)c2cc(NC(=O)Nc3ccc(F)cc3)ccc2O[C@@H](C)CCCCO[C@H]1CN(C)C(=O)Nc1ccc(F)cc1 | inactive: 1.05
39 | COc1ccc(CCNC(=O)[C@@]2(Sc3ccc(C)cc3)CC(=O)N(Cc3cc(C(F)(F)F)cc(C(F)(F)F)c3)[C@@H]2c2ccc(CO)cc2)cc1 | inactive: 1.02
40 | C[C@@H]1CCCCO[C@@H](CN(C)C(=O)c2ccccc2)[C@H](C)CN([C@H](C)CO)C(=O)c2cc(NC(=O)CCC(F)(F)F)ccc2O1 | inactive: 0.992

Row | SMILES | relative growth
41 | CC(=O)Nc1ccc(S(=O)(=O)c2ccc(NC(C)=O)cc2)cc1 | inactive: 1.13
42 | C[C@@H]1CCCCO[C@@H](CN(C)C(=O)Nc2ccc3c(c2)OCO3)[C@@H](C)CN([C@H](C)CO)C(=O)c2cc(NC(=O)Nc3cccc4ccccc34)ccc2O1 | inactive: 1.05
43 | O=C([O-])CCNC(=O)c1ccc(N=Nc2ccc(O)c(C(=O)[O-])c2)cc1.[Na+].[Na+] | inactive: 0.999
44 | Cc1cc(C(=O)Nc2cccc3c2O[C@H](CN(C)C(=O)NC(C)C)[C@H](C)CN([C@H](C)CO)C3=O)n(C)n1 | inactive: 1.02
45 | CC(C)=CCCC(C)=CCC1=C(C)C(=O)c2ccccc2C1=O | inactive: 0.96
46 | COc1cccc(S(=O)(=O)Nc2ccc3c(c2)[C@@H]2C[C@H](CC(=O)NCC(F)(F)F)O[C@H](CO)[C@@H]2O3)c1 | inactive: 1.01
47 | C[C@H](CO)N1C[C@H](C)[C@H](CN(C)Cc2ccncc2)Oc2ccc(NS(=O)(=O)c3ccc(F)cc3)cc2C1=O | inactive: 0.996
48 | O=C(C[C@@H]1CC[C@H]2[C@@H](COC[C@@H](O)CN2C(=O)c2ccncc2)O1)NC1CCC1 | inactive: 0.999
49 | C[C@@H]1CCCCO[C@H](CN(C)C(=O)C2CCCCC2)[C@@H](C)CN([C@H](C)CO)C(=O)c2cc(NS(=O)(=O)c3ccc(F)cc3)ccc2O1 | inactive: 1.03
50 | Cc1ccc(S(=O)(=O)N(C)C[C@@H]2Oc3ccc(NC(=O)C4CC4)cc3CC(=O)N([C@H](C)CO)C[C@@H]2C)cc1 | inactive: 0.956
51 | Cc1noc(C)c1NC(=O)N(C)C[C@H]1Oc2ccc(NC(=O)Nc3ccc(C(F)(F)F)cc3)cc2C(=O)N([C@H](C)CO)C[C@@H]1C | inactive: 0.993
52 | C[C@H]1CN([C@@H](C)CO)C(=O)c2cccc(NC(=O)c3ccc(-c4nccs4)cc3)c2O[C@@H]1CN(C)C(=O)NC1CCCCC1 | inactive: 0.967
53 | C[C@H]1CN([C@@H](C)CO)C(=O)CCCn2nncc2CO[C@@H]1CN(C)C(=O)Nc1ccc2c(c1)OCO2 | inactive: 1
54 | CO[C@@H]1CN(C)C(=O)c2ccc(NC(=O)C3CCOCC3)cc2OC[C@@H](C)N(Cc2cccnc2)C[C@@H]1C | inactive: 0.98
55 | C[C@@H]1CCCCO[C@H](CN(C)C(=O)Nc2ccccc2)[C@@H](C)CN([C@@H](C)CO)C(=O)c2cc(NS(=O)(=O)c3ccc(F)cc3)ccc2O1 | inactive: 1.04
56 | C[C@@H]1CN([C@@H](C)CO)S(=O)(=O)c2ccc(C#Cc3ccncc3)cc2O[C@@H]1CN(C)C(=O)C1CCC1 | inactive: 0.988
57 | O=C(C[C@@H]1CC[C@@H]2[C@H](COC[C@H](O)CN2C(=O)c2cnccn2)O1)NCc1ccc(Oc2ccccc2)cc1 | inactive: 0.985
58 | CO[C@H](CN(C)C(=O)c1ccc2c(c1)OCO2)[C@H](C)CN([C@@H](C)CO)S(=O)(=O)c1ccc(F)cc1 | inactive: 0.991
59 | CC(C)NC(=O)N(C)C[C@H]1Oc2ccc(NS(=O)(=O)c3ccc(F)cc3)cc2C(=O)N([C@@H](C)CO)C[C@H]1C | inactive: 0.982
60 | C[C@@H]1CN([C@@H](C)CO)C(=O)c2cc(NS(=O)(=O)c3cccs3)ccc2O[C@@H]1CN(C)S(C)(=O)=O | inactive: 0.993
